Laboratory results: PubChem BioAssay AID504332 (National Center for Advancing Translational Sciences (NCATS), 2011)
About 31,000 (8.9%) of roughly 350,000 compounds were called active. The shares of active, inactive and inconclusive entries below differ from those in the screen. The call rests on the fitted dose curve; in most records, active means well fitted inhibition curve with a large enough effect; inconclusive means small, poorly fitted or top-dose-only effect; inactive means no such curve, though single readings can be large or run the other way. A potency beside an inconclusive call is a rough fit, not a confirmed value.

Target: Histone-lysine N-methyltransferase EHMT2 (Homo sapiens) (UniProt Q96KQ7)
Experiment: qHTS Assay for Inhibitors of Histone Lysine Methyltransferase G9a; further: nearly all actives have a fitted effect of over 75% in size
Details: G9a H3K9 monomethylation, AlphaScreen, 2 h; activity, negative = inhibition: at 59 µM (top of the series) unless noted
How it was run: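 Enzyme 20 nM + cpd, 15 min RT; add b-H3K9 pep 500 nM / SAM 20 uM; 2 h RT; anti-H3K9me1 Ab 0.5 ug/mL + SA donor / anti-rabbit acceptor beads 20 ug/mL each, 10 min; AlphaScreen read.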
On the % scale 0 is the no-effect control and ±100 the full control effect; potency means the concentration at half of the fitted maximal effect; tags describe the fitted curve by direction and shape.

Chain of UniProt Q96KQ7 (Q96KQ7 whole entry, looked up): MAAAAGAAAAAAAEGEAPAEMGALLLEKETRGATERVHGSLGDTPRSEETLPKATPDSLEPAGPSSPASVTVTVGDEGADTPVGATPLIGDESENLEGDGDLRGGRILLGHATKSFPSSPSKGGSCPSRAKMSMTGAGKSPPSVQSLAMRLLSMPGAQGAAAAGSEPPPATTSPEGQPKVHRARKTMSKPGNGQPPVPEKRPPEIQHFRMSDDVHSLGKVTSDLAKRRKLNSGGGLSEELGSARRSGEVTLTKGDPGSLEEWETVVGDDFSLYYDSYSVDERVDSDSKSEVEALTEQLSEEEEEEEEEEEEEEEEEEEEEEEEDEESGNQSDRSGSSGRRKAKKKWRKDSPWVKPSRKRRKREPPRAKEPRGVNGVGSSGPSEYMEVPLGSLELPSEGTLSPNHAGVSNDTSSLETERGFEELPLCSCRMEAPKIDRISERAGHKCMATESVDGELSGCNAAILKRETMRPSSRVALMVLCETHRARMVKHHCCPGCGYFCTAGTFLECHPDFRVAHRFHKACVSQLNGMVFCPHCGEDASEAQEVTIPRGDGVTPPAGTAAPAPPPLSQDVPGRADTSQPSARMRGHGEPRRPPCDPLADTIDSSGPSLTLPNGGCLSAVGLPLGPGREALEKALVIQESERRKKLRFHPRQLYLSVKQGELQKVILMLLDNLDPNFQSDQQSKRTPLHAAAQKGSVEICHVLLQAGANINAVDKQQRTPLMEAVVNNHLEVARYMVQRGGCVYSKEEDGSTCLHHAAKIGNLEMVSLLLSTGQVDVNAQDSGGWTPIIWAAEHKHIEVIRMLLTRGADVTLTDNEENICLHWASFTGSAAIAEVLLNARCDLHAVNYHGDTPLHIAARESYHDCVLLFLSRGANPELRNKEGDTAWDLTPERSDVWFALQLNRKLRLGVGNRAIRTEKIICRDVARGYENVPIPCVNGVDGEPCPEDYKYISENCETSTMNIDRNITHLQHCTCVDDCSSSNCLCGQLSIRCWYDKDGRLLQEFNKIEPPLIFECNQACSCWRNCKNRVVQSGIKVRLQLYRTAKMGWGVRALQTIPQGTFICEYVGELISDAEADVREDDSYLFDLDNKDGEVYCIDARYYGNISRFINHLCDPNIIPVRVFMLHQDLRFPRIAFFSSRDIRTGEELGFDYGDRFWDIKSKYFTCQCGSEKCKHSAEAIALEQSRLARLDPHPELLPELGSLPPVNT

Row | Structure (SMILES) | Potency | activity, negative = inhibition
1 | O=C(Nc1cc(S(=O)(=O)Nc2ccc(Cl)cc2)ccc1N1CCCCC1)c1ccc(F)cc1Cl | active: 10 µM | –
2 | CCOc1ccc(NC(=O)NCCCN2CCN(c3ccc(OC)cc3)CC2)cc1 | inconclusive: 10 µM [inhibitor, partial curve] | –
3 | C=CCc1ccc(O)c(-c2cc(CC=C)ccc2O)c1 | inconclusive: 15.8 µM [inhibitor, partial curve] | –
4 | COCCCN1C(=O)C(=O)/C(=C(/O)c2ccc(S(=O)(=O)N3CCCCC3)cc2)C1c1ccc(F)cc1 (stereo not given) | – | inactive: 6.23% [at 0.0925 µM]
5 | Cc1ccc(NC(=O)Cn2nnc3ccccc32)cc1 | inconclusive: 0.398 µM [inhibitor, partial curve, poor fit] | –
6 | CCN(CC(=O)Nc1ccc(C(C)=O)cc1)CC(=O)Nc1ccccc1C(F)(F)F | inconclusive: 39.8 µM [inhibitor, partial curve] | –
7 | CN(C(=O)c1ccc(Cl)c([N+](=O)[O-])c1)C1(C)CCS(=O)(=O)C1 (stereo not given) | – | inactive: 21.8% [at 2.33 µM]
8 | CN(CCCN1CCOCC1)Cc1cn(C)nc1-c1ccccc1F | inconclusive: 79.4 µM [inhibitor, partial curve, poor fit] | –
9 | COCC(=O)n1nc(NCc2ccc(OC)cc2)nc1NCc1ccc(OC)cc1 | – | inconclusive: -65.3% [inhibitor]
10 | COC(=O)c1ccc(C(=O)Nc2ccc(N)cc2N)cc1 | active: 44.7 µM | –
11 | CCCNS(=O)(=O)c1ccc(CCC(=O)N2CCCC2)cc1 | inconclusive: 44.7 µM [inhibitor, partial curve] | –
12 | Cc1ccccc1NC(=O)Cn1c(=O)n(Cc2ccco2)c(=O)c2cccnc21 | inactive | –
13 | COCC(C)n1c(SCC(=O)NC(=O)Cc2ccccc2)nc2ccccc2c1=O (stereo not given) | inactive | –
14 | Cc1ccc(NC(=O)CCl)c(C)c1 | inconclusive: 50.1 µM [inhibitor, partial curve] | –
15 | O=C(NCCc1ccccc1)c1cc(-c2ccccc2)nc2n[nH]c(-c3ccccc3)c12 | inactive | –
16 | COc1ccccc1N1CCN(C(=O)CCNS(=O)(=O)c2cc(Br)cnc2N)CC1 | inactive | –
17 | COc1ccc(-c2cc(C(F)F)n3ncc(C(=O)N4CCc5ccccc5C4)c3n2)cc1 | inconclusive: 70.8 µM [inhibitor, partial curve, poor fit] | –
18 | Nc1nnc(SCC(=O)NCC(=O)Nc2ccc(F)c(F)c2F)s1 | inconclusive: 3.16 µM [inhibitor, single point] | –
19 | Fc1cccc(CN2CCN(c3ncccn3)CC2)c1 | inconclusive: 3.16 µM [inhibitor, partial curve, poor fit] | –
20 | Cc1ccc(Cl)cc1NC(=O)C1CCCN(S(=O)(=O)c2c(C)noc2/C=C/N(C)C)C1 (stereo not given) | inconclusive: 14.1 µM [inhibitor, partial curve, poor fit] | –
21 | COc1cc([C@H]2c3[nH]c4ccccc4c3C[C@H]3C(=O)N4[C@@H](c5cc(OC)c(OC)c(OC)c5)c5[nH]c6ccccc6c5C[C@H]4C(=O)N23)cc(OC)c1OC | inconclusive: 89.1 µM [inhibitor, single point] | –
22 | CCOC(=O)N1CCN(C(=O)c2cnn3c(C)c(Cc4ccc(C)cc4)c(C)nc23)CC1 | inactive | –
23 | CC(C)NC(=O)c1ccc(CN2CCc3ccccc3C2)cc1 | inconclusive: 1.12 µM [inhibitor, full curve] | –

Row | Structure (SMILES) | Potency | activity, negative = inhibition
24 | Cc1cc(=O)c(C(=O)O)cn1Nc1ccc(F)cc1 | inconclusive: 35.5 µM [inhibitor, single point] | –
25 | Cc1ccc(C(C)C)c(OCC(=O)Nc2ccc(N3CCOCC3)cc2N2CCOCC2)c1 | active: 25.1 µM | –
26 | O=C(C[n+]1cc(Br)cc(Br)c1)c1ccc(-c2ccccc2)cc1 | active: 25.1 µM | –
27 | CC(=O)N1CCN(C(=O)c2ccc(-c3cccc(C(F)(F)F)c3)o2)CC1 | active: 50.1 µM | –
28 | CC(=O)C1=C(O)C(=O)N(CCN(C)C)C1c1ccc(Cl)cc1 (stereo not given) | inconclusive: 8.91 µM [inhibitor, partial curve, poor fit] | –
29 | COc1ccc(C(=O)NNC(=O)C(Cc2ccc(O)cc2)NC(=O)c2ccccc2NC(=O)c2ccc(OC)cc2)cc1 (stereo not given) | inactive | –
30 | Cc1cc(C)c2[nH]c(=S)cc(C)c2c1 | active: 3.55 µM | –
31 | COc1ccc2[nH]c(=O)c(CN(Cc3ccccc3OC)Cc3nnnn3CC3CCCO3)cc2c1 (stereo not given) | inactive | –
32 | O=C(c1cc2ccccc2cc1O)N1CCN(c2cccc(Cl)c2)CC1 | inconclusive: 79.4 µM [inhibitor, single point] | –
33 | CCOc1ccc(Nc2ncnc(N)n2)cc1 | – | inactive: -2.5% [at 12.7 µM]
34 | COc1ccc(NC(=S)N(Cc2ccc(N(C)C)cc2)Cc2ccco2)cc1 | inconclusive: 20 µM [inhibitor, single point] | –
35 | O=C(O)CCS(=O)(=O)c1cccc2cccnc12 | inconclusive: 50.1 µM [inhibitor, partial curve, poor fit] | –
36 | NC(=S)NN=C1c2cc(OCCN3CCOCC3)ccc2-c2ccc(OCCN3CCOCC3)cc21 | active: 31.6 µM | –
37 | Cc1ccc(CN2CCC(CNC(=O)Nc3c(C)cccc3C)C2)cc1 (stereo not given) | inactive | –
38 | CCN(CC)c1ccc(N2C(=O)c3ccccc3C2=O)cc1 | – | inactive: -4.35% [at 12.7 µM]
39 | O=[N+]([O-])c1cccc(Oc2cnccn2)c1 | inactive | –
40 | O=c1c2ccccc2c(C=Nc2cccc(S(=O)(=O)NCc3ccco3)c2)c(O)n1-c1ccc(Cl)cn1 | active: 28.2 µM | –
41 | Cc1cc(C(=O)NCc2ccco2)c2ccccc2n1 | inconclusive: 0.282 µM [inhibitor, partial curve, poor fit] | –
42 | Cc1cc(C)c2c(CC(=O)Nc3nnc(CC(C)C)s3)coc2c1 | inconclusive: 28.2 µM [inhibitor, single point] | –
43 | COC(=O)C1CCN(C(=O)c2cc3ccccc3oc2=O)CC1 | inconclusive: 22.4 µM [inhibitor, partial curve] | –
44 | CCN(CC(=O)NCc1ccc(Cl)cc1)Cc1cc(=O)n2ccsc2n1 | inconclusive: 6.31 µM [inhibitor, single point] | –
45 | COc1cc(/C=C(\C#N)c2ccccn2)ccc1OCC(=O)Nc1ccc(Br)cc1 | inconclusive: 39.8 µM [inhibitor, single point] | –
